Experimental findings from PMC4336329 (PLoS ONE, 2015) are described below.

Out of some 310,000 compounds screened, about 2,200 (0.71%) showed an effect of 50% or more. Effects have a minus sign here. The list shows a part of the results.

In the assay the target is human ether-à-go-go-related gene (hERG) potassium channel (human, UniProt Q12809). Kind of assay: primary screen, population patch clamp on CHO cells stably expressing hERG.
Sequence of human ether-à-go-go-related gene (hERG) potassium channel (Q12809 whole entry, looked up): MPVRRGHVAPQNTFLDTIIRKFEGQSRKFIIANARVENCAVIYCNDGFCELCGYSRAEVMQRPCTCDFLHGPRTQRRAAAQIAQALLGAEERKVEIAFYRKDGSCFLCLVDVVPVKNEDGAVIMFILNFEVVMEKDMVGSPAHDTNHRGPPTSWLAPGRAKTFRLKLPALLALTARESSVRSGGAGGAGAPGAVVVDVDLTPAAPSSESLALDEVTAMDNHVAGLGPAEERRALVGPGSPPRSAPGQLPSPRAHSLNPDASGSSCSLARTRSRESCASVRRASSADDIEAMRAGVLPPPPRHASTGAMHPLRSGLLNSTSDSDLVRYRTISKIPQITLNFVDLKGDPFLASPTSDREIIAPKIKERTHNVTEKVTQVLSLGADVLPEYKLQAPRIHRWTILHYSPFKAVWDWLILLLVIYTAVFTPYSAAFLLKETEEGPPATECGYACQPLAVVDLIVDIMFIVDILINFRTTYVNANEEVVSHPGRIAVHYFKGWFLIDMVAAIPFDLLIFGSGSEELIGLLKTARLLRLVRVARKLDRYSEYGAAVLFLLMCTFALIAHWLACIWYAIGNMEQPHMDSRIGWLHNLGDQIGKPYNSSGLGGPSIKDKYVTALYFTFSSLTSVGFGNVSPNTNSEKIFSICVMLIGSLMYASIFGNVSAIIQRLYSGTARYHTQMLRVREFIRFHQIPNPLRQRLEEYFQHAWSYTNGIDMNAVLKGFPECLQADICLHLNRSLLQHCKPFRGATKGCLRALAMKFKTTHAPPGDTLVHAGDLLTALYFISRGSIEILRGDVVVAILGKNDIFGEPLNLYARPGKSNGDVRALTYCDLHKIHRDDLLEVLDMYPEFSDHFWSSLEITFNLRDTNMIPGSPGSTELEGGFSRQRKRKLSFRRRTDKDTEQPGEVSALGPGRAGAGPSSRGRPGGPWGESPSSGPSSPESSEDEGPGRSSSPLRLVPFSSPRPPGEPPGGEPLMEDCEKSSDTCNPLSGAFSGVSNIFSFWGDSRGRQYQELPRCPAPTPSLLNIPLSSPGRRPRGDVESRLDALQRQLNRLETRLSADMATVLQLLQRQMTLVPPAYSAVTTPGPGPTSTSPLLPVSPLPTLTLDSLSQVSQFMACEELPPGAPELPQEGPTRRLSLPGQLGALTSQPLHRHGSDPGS
`O=c1c2cc(NC(=S)NC3CC3)ccc2nc2n1CCCCC2`: the “hERG current change (%, negative = inhibition) at 1uM” value came out at 5.64%.
Regarding `C[C@]12CCC(=O)C=C1CC[C@@H]1C2[C@H](O)C[C@]2(C)C(=O)CCC12` (stereo partly shown), the “hERG current change (%, negative = inhibition) at 1uM” value came out at 10.6%.
Regarding `COC(=O)c1ccccc1NC(=O)Cn1ccnc1`, the “hERG current change (%, negative = inhibition) at 1uM” value was 6.95%.
On to `COc1cccc(OC)c1OCCCOc1c(OC)cccc1OC`, for which the “hERG current change (%, negative = inhibition) at 1uM” value is listed as 9.95%.
Consider `CC(C)CNS(=O)(=O)c1ccc(C(=O)Nc2ccc3c(c2)OCCO3)cc1`, for which the “hERG current change (%, negative = inhibition) at 1uM” value is recorded as 15.2%.
As for `Cc1c(NS(=O)(=O)c2cc(C(=O)NCc3ccco3)cc(Cl)c2Cl)c(=O)n(-c2ccccc2)n1C`, the “hERG current change (%, negative = inhibition) at 1uM” value came out at 5.27%.
As to `CCOC(=O)C1=C(C)Nc2ccccc2N=C1NC(=O)c1cc(C)on1`, the “hERG current change (%, negative = inhibition) at 1uM” value is recorded as -3.04%.
For the molecule `COc1ccc(S(=O)(=O)Nc2ccccc2OC)cc1NC(=O)c1cc2ccccc2oc1=O`, the “hERG current change (%, negative = inhibition) at 1uM” value is listed as -4.91%.
On to `Cc1cc(NC(=O)C2CC=CCC2C(=O)O)no1` (stereo not shown), for which the “hERG current change (%, negative = inhibition) at 1uM” value was found to be 1.58%.
Take `CC(Nc1cccc(F)c1)C(=O)Nc1ccc(S(N)(=O)=O)cc1` (stereo not shown): the “hERG current change (%, negative = inhibition) at 1uM” value is 10.5%.
The figure for `Cc1ccc(OCC(=O)O/N=C(\N)c2cccnc2)cc1` is 10.6%; for `O=C(NCCNc1ccc([N+](=O)[O-])cc1C(F)(F)F)c1ccccc1` it is -2.76%.
The figure for `CN(Cc1ccc(F)cc1)C(=O)C(Cc1ccccc1)NC(=O)c1ccccc1` (stereo not shown) is 15.9%; for `CC(NC(=O)CN(c1ccc(Cl)cc1)S(C)(=O)=O)c1ccccc1` (stereo not shown) it is 12.2%; for `COc1ccc2c(C)cc(SCC(=O)Nc3ncc(Cl)cc3Cl)nc2c1` it is -1.19%.
Take `O=C(CN1C(=O)CSc2ccc(C(F)(F)F)cc21)Nc1ccccc1`: the “hERG current change (%, negative = inhibition) at 1uM” value was found to be 12%.
As to `CC(=O)N1CCCN(C(=O)c2cc(COc3c(F)cccc3F)on2)CC1`, the “hERG current change (%, negative = inhibition) at 1uM” value is 6.37%.
Take `Cc1cccc(NC(=O)c2sc3ncn(CC(=O)N4CCN(c5ccccn5)CC4)c(=O)c3c2C)c1`: the “hERG current change (%, negative = inhibition) at 1uM” value is -13.3%.
Take `O=C(Nn1cnc2ccccc2c1=O)C1CCCCC1`: the “hERG current change (%, negative = inhibition) at 1uM” value is 7.64%.
Take `CN(C(=O)COC(=O)/C=C/c1cn(-c2ccccc2)nc1-c1ccc2c(c1)OCCO2)C1CCS(=O)(=O)C1` (stereo not shown): the “hERG current change (%, negative = inhibition) at 1uM” value is given as 3.84%.
On to `N#Cc1c(N)nc2c(c1N)CC(=O)N2c1ccccc1-c1ccccc1`, for which the “hERG current change (%, negative = inhibition) at 1uM” value stood at 2.8%.
In the case of `COc1cccc(OCCCN2CCCCC2)c1`, the “hERG current change (%, negative = inhibition) at 1uM” value is reported as -8.59%.
`O=C(Nc1ccccc1Cl)c1ccn[nH]1`: the “hERG current change (%, negative = inhibition) at 1uM” value turned out to be 4.75%.
The figure for `C[C@@H]1O[C@@H](O[C@H]2C[C@@H](O)[C@]3(CO)[C@H]4[C@H](O)C[C@]5(C)[C@@H](C6=CC(=O)OC6)CC[C@]5(O)[C@@H]4CC[C@]3(O)C2)[C@H](O)[C@H](O)[C@H]1O.O` is 21.1%; for `O=C(NCCc1ccc(C(F)(F)F)cc1)C1CC(=O)N(Cc2ccccc2)C1` (stereo not shown) it is 0.784%; for `CC(=O)N1N=C(c2cccs2)CC1c1ccc(C)o1` (stereo not shown) it is 13.4%.
Turning to `CC1CCCN(CCS(=O)(=O)c2ccccc2)C1` (stereo not shown), the “hERG current change (%, negative = inhibition) at 1uM” value is reported as 5.66%.
The figure for `CC(C)NC(=O)NC(=O)COC(=O)c1cccc(S(=O)(=O)N2CCCCC2)c1` is 6.61%; for `COc1ccc(/C=C(/NC(=O)c2ccccc2)C(=O)N2CCCC2)cc1OC` it is 14.3%.
On to `COc1ccc(C(C)C)cc1S(=O)(=O)n1ccnc1C`, for which the “hERG current change (%, negative = inhibition) at 1uM” value worked out at 12.6%.
The figure for `COCc1c(Br)c(C)nc(OCC(=O)N/N=C/c2cc(C)n(-c3ccc([N+](=O)[O-])cc3)c2C)c1C#N` is 3.11%.
For `COC(=O)c1ccc2c(=O)n(-c3ccccc3)c(SCN3C(=O)c4ccccc4C3=O)nc2c1` the value was 13.4%.
Consider `Cc1ccc(C(=O)C(C)OC(=O)Cn2cnc3c2c(=O)n(C)c(=O)n3C)cc1` (stereo not shown), for which the “hERG current change (%, negative = inhibition) at 1uM” value is on record as 11.8%.
Consider `COc1cc(CC(=O)OCC(=O)Nc2ccc3c(c2)OCCO3)cc(OC)c1OC`, for which the “hERG current change (%, negative = inhibition) at 1uM” value came to 11.4%.
For `OCC1(CCOc2ccccc2)CCN(Cc2cn[nH]c2-c2ccc(F)cc2)CC1` the value was -46.3%; for `Cc1cccc(COc2ccccc2C(=O)N(C)CC(=O)Nc2cccc(F)c2)c1`, 5.16%; for `COCCCNC(=O)Cn1cnc2sc(C)c(S(=O)(=O)N3CCN(c4ncccn4)CC3)c2c1=O`, 10.2%.
For `COc1ccccc1NC(=O)COC(=O)C1CC1`, the “hERG current change (%, negative = inhibition) at 1uM” value is given as 6.59%.
For the molecule `Cc1cc(C)cc(NC(=S)N2CCN(C(=O)c3ccco3)CC2)c1`, the “hERG current change (%, negative = inhibition) at 1uM” value turned out to be 6.33%.
Turning to `Cc1c(NS(=O)(=O)c2ccc3c(c2)c(=O)n(C)c(=O)n3C)c(=O)n(-c2ccccc2)n1C`, the “hERG current change (%, negative = inhibition) at 1uM” value is reported as -3.63%.
On to `Cc1ccc(C)c(N2CC(C(=O)OCC(=O)Nc3cc(C)on3)CC2=O)c1` (stereo not shown), for which the “hERG current change (%, negative = inhibition) at 1uM” value is 11.6%.
Regarding `CCOc1cccc(-c2nnc(SCC(=O)Nc3cc(OC)cc(OC)c3)n2N)c1`, the “hERG current change (%, negative = inhibition) at 1uM” value is given as 6.27%.
For `COc1ccc([C@H]2CC(=O)C=C(c3cc(C)ccc3OC)C2)cc1` the value was 12.5%; for `COC(=O)c1ccc(C(NC(=O)OCc2ccccc2)/C(F)=C/[C@@H](C)C(=O)NCc2ccc(-c3ccccc3)cc2)cc1` (stereo partly shown), 12.6%; for `O=C(NCC1COc2ccccc2O1)C1CCCN(S(=O)(=O)c2cccc3cccnc23)C1` (stereo not shown), 4.12%.
For `NC(=O)c1cc(NC(=O)CCc2nc3ccccc3s2)cc(C(N)=O)c1` the value was 15.5%; for `COc1ccc(-c2ccc(=O)n(Cc3cccc(Cl)c3)n2)cc1`, 12.4%; for `Cc1ncccc1C(=O)N1CCCC(CCC(=O)N2CCN(c3ccccn3)CC2)C1` (stereo not shown), 12.4%.
The figure for `CSc1nsc(SCC(=O)Nc2ccc3c(c2)OCCO3)n1` is 0.801%; for `Cc1ccc(NC(=O)C2CCCN2C(=O)c2cccs2)cc1C` (stereo not shown) it is 8.23%; for `Cc1ccccc1NC(=O)CSc1nc(N)c(C#N)c(-c2cccs2)c1C#N` it is 4.72%.
`CC(C)c1ccc(NC2CCCN(C(=O)c3cccc(N4CCNC4=O)c3)C2)cc1` (stereo not shown): the “hERG current change (%, negative = inhibition) at 1uM” value is 15.8%.
As to `CCOC(=O)c1nnn(CC(=O)NC(=O)Nc2ccccc2)c1C(=O)OCC`, the “hERG current change (%, negative = inhibition) at 1uM” value is on record as 7.08%.
For `COc1ccc(-c2cc3onc(-c4c(Cl)cccc4Cl)c3c(=O)n2C)cc1` the value was 3.35%; for `COc1ccc(C(=O)Nc2ccccc2-c2nnn(CC(=O)NCc3ccco3)n2)cc1`, 13.4%.
Take `CCCCn1nnc(NC(=O)c2cc3ccccc3o2)n1`: the “hERG current change (%, negative = inhibition) at 1uM” value came out at 6.54%.
With `Cc1cc(C)c2nc(-c3ccccn3)cc(C(=O)Nc3cc(C)on3)c2c1`, the “hERG current change (%, negative = inhibition) at 1uM” value was found to be 1.53%.
The figure for `C=CCN=C1N[C@@H](c2ccccc2)C(C(=O)OC)=C(C)N1CC` is 3.57%.
Turning to `C#CCNC(=O)C1=C[C@H](c2ccccc2)[C@@H](CCCO)[C@H](OCC)O1`, the “hERG current change (%, negative = inhibition) at 1uM” value amounted to 15.7%.
With `Cn1c(CNC(=O)c2ccco2)nnc1SCC(=O)Nc1c(F)cc(F)cc1Br`, the “hERG current change (%, negative = inhibition) at 1uM” value worked out at 15.1%.
Consider `COc1ccc(CNCCSc2nnnn2C)c(OC)c1OC.Cl`, for which the “hERG current change (%, negative = inhibition) at 1uM” value was 13.2%.
`COc1ccc(CC(=O)OCC(=O)c2ccc(S(=O)(=O)N3CCCCC3)cc2)cc1`: the “hERG current change (%, negative = inhibition) at 1uM” value amounted to 9.91%.
As to `CC1(C)OC(=O)C(=NNc2ccccc2[N+](=O)[O-])C(=O)O1`, the “hERG current change (%, negative = inhibition) at 1uM” value turned out to be 3.74%.
For the molecule `Cn1ncc(Cl)c1C(=O)N1CCN(c2cccc(Cl)c2)CC1`, the “hERG current change (%, negative = inhibition) at 1uM” value is given as -1.96%.
Take `COc1ccccc1OCc1nnc(SCCN2CCOCC2)o1.O=C(O)C(=O)O`: the “hERG current change (%, negative = inhibition) at 1uM” value is listed as 4.4%.
`CCc1ccc(-c2nc(SCC(=O)N3CCOCC3)n[nH]2)cc1`: the “hERG current change (%, negative = inhibition) at 1uM” value is recorded as -2.43%.
Regarding `Cn1cccc1/C=C(/C#N)c1ccc(F)cc1`, the “hERG current change (%, negative = inhibition) at 1uM” value was 6.81%.
On to `CCCCCN1C(C)=CC(=C(C#N)C#N)C=C1C`, for which the “hERG current change (%, negative = inhibition) at 1uM” value is 22.4%.
For `c1ccc(-c2nc(N3CCCC3)nc3ccccc23)cc1`, the “hERG current change (%, negative = inhibition) at 1uM” value was determined as 14.7%.
For `CC(C)C(=O)N1CCC(c2nc(-c3ccc(S(=O)(=O)N4CCN(C)CC4)cc3)no2)CC1`, the “hERG current change (%, negative = inhibition) at 1uM” value was determined as 13.8%.
Take `CC(C)CNC(=O)COC(=O)CCC(=O)c1cccs1`: the “hERG current change (%, negative = inhibition) at 1uM” value was found to be 15.7%.
Turning to `COc1ccccc1-n1cc(C(=O)NCC(=O)NCc2ccc(F)cc2)c2ccccc2c1=O`, the “hERG current change (%, negative = inhibition) at 1uM” value was found to be 9%.
For the molecule `CCOC(=O)c1cc2sc(C)cc2n1C(C)C(=O)OCC` (stereo not shown), the “hERG current change (%, negative = inhibition) at 1uM” value is on record as 2.66%.
As to `CCCn1c(SCC(=O)NC(C)(C)C)nnc1C(C)C`, the “hERG current change (%, negative = inhibition) at 1uM” value came out at 8.04%.
For `COCC(=O)Nc1cc(C)cn(Cc2ccccc2Cl)c1=O`, the “hERG current change (%, negative = inhibition) at 1uM” value turned out to be 15.1%.
Turning to `O=[N+]([O-])c1cccc(/C=N/NC2=NS(=O)(=O)c3ccccc32)c1`, the “hERG current change (%, negative = inhibition) at 1uM” value was determined as 14.2%.
For the molecule `CC(C)OC(=O)c1cccc(NC(=O)CSc2nnc(N)s2)c1`, the “hERG current change (%, negative = inhibition) at 1uM” value is on record as 4.13%.
For `Cc1nc2ncccn2c1-c1csc(Nc2ccccc2)n1` the value was -7.85%; for `CCOC(=O)C1=C(c2ccccc2)OC(N)=C(C#N)C1C(C)C` (stereo not shown), -15.5%.
Regarding `COc1ccc(CCNC(=O)COC(=O)CSc2ccc([N+](=O)[O-])cc2)cc1OC`, the “hERG current change (%, negative = inhibition) at 1uM” value amounted to 4.89%.
Consider `Cc1ccccc1NC(=O)CSc1cn[nH]n1`, for which the “hERG current change (%, negative = inhibition) at 1uM” value was 15.8%.
In the case of `Cc1ccc(-c2noc(CN3CCC(C(N)=O)CC3)n2)cc1`, the “hERG current change (%, negative = inhibition) at 1uM” value turned out to be 15.7%.
Turning to `COc1cc(/C=C/C(=O)OCC(=O)NC(=O)NC(C)C)ccc1OCC#N`, the “hERG current change (%, negative = inhibition) at 1uM” value was determined as 6.42%.
Turning to `COc1cccc(NC(=O)c2ccn(C)n2)c1`, the “hERG current change (%, negative = inhibition) at 1uM” value was determined as 11.4%.
Turning to `COc1ccc(S(=O)(=O)N2CCC(C(=O)N3CCc4ccccc4C3)CC2)cc1OC`, the “hERG current change (%, negative = inhibition) at 1uM” value is recorded as -8.72%.
